Reference: paper PMC4336329 (PLoS ONE, 2015)
The campaign covered roughly 310,000 compounds. About 14,000 (4.5%) showed an effect of 50% or more. The effect is printed as a negative number. The list shows a part of the results.

Target: human ether-à-go-go-related gene (hERG) potassium channel (human, UniProt Q12809)
Experiment: primary screen, population patch clamp on CHO cells stably expressing hERG
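Also: peak tail current of the secondary pulse compared with the same well before compound.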

Sequence of human ether-à-go-go-related gene (hERG) potassium channel (Q12809 whole entry, looked up): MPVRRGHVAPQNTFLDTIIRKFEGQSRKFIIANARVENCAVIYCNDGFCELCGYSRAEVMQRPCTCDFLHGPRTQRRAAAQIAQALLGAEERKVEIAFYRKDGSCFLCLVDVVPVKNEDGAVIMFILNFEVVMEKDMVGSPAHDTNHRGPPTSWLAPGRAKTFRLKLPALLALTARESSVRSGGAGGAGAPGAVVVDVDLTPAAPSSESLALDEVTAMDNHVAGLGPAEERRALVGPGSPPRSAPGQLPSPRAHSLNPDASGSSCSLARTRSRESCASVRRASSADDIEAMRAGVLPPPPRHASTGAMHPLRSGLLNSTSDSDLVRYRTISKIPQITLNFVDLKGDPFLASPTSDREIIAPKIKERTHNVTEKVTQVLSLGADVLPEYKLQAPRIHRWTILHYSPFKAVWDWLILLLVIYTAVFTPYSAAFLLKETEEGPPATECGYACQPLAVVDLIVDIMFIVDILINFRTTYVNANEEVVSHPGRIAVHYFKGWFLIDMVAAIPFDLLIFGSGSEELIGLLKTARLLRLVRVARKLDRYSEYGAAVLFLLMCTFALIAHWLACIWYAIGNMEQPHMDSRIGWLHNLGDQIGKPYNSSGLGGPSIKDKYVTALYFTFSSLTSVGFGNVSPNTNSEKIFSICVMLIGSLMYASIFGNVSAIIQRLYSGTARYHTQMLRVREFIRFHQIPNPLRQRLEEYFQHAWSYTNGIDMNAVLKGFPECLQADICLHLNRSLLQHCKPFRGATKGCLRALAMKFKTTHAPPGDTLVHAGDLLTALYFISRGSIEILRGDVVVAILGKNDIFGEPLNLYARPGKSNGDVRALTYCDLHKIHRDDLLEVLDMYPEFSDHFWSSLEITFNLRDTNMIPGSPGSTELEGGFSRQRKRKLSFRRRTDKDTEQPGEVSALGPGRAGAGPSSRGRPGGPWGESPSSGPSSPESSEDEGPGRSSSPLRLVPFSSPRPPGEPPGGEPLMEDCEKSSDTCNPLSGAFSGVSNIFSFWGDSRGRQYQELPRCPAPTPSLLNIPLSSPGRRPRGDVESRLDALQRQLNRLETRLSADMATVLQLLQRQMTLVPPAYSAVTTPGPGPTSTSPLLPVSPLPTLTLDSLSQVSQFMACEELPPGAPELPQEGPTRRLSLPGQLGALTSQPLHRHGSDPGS

Compound | hERG current change (%, negative = inhibition) at 10uM
O=C1CC(N2CCN(S(=O)(=O)c3ccccc3F)CC2)C(=O)N1c1ccccc1Cl (centres unmarked) | -3.61%
CCc1ccc(Nc2nc(C)cc(C)n2)cc1.Cl | -1.21%
CC1Cc2ccccc2N1C(=O)C(C)n1cc(C(F)(F)F)cc(Cl)c1=O (centres unmarked) | 5.52%
O=C(NCCN1CCN(c2ccccc2F)CC1)C1c2ccccc2C(=O)N2CCc3ccccc3C12 (centres unmarked) | -11.8%
COc1ccc(OC)c(-c2c3cc(O)c(=O)cc-3oc3cc(O)c(O)cc23)c1 | 5.48%
C=CCOC(=O)C1=C[C@H](c2ccc(C(F)(F)F)cc2)[C@@H](CCCO)[C@H](OCC)O1 | -16.3%
O=C(Cc1csc(NC(=O)Nc2ccc(Cl)cc2)n1)NCc1ccccn1 | -44.7%
CCn1cc(C(=O)O)c(=O)c2cc(F)c(N3CCN(C(=S)NC(=O)c4ccccc4F)CC3)cc21 | 2.73%
Cc1[nH]n(-c2ccccc2)c(=O)c1N=Nc1c(O)cc(S(=O)(=O)N(C)C)c2ccccc12 | 22.8%
CCOC(=O)c1sc2ccccc2c1OC(=O)c1ccccc1OC | 14.8%
COc1ccccc1C(=O)N/C(=C/c1ccc(Br)cc1)C(=O)NCCO | -24%
CN(C)CCCNc1c2c(nc3cc(-c4cccc(F)c4)nn13)CCC2 | -69.1%
Cc1cc(C)nc(NS(=O)(=O)c2ccc(NS(=O)(=O)c3ccc(C#N)cc3)cc2)n1 | -4.23%
CCN(CC)C(=O)CSc1nc2ccccc2c(=O)n1-c1cccc(OC)c1 | -14.7%
Cc1ccc2ccc3cccc4ccc1c2c34 | 14%
Cc1ccc(-c2nn(Cc3ccccc3)cc2C=O)cc1 | -6.3%
Cc1cccc(C(=O)NCc2nnc(SCC(=O)NC(C)c3ccccc3)n2C)c1 (centres unmarked) | 3.31%
COc1ccc(Br)cc1CNC(=O)C1CCN(c2nnc(N3CCCC3=O)s2)CC1 | 13.9%
CCCCn1c(-c2ccccc2)nnc1-c1ccccc1 | -10.9%
Cc1ccc(CNC(=S)Nc2ccc(C)c([N+](=O)[O-])c2)cc1 | 17.5%
COC(=O)CCSCC(=O)N1N=C(c2ccc(Br)cc2)CC1c1cccc(OC)c1OC (centres unmarked) | 9.64%
O=C(CN1CCCN(Cc2ccc(F)cc2)S1(=O)=O)NC1CCCC1 | 5%

Compound | hERG current change (%, negative = inhibition) at 10uM
COC(=O)c1sc2nc(CSc3ccc(Br)cc3)[nH]c(=O)c2c1C | 10%
Cn1c(SCc2nnc(-c3ccc(F)cc3)o2)nnc1C1COc2ccccc2O1 (centres unmarked) | -60.9%
COCCN(C(=O)Nc1ccccc1)c1ccccc1 | 2.3%
CC1=Nc2ccccc2/C1=C\c1sc(Nc2ccc(C)cc2)nc1O | -1.36%
Cc1cccc(OCC(=O)N(C)CCc2ccccn2)c1 | -7.66%
O=C(C(c1ccccc1)c1ccccc1)N1CCN(Cc2ccncc2)CC1 | -35.4%
CCCOn1c(OCC(C)C)nc2ccccc2c1=O | -1.01%
Cc1nc(-c2cccc(NC(=O)c3cc4cc(Br)ccc4oc3=O)c2)cs1 | -0.364%
CCCN1C(=O)c2cc(C(=O)NC3CCCC3)ccc2C1O (centres unmarked) | -2.01%
COc1ccc(-n2nnc3c(=O)n(CC(=O)N4CCCCC4)cnc32)cc1 | 1.8%
Cc1c(NC(=O)c2ccccc2NC(=O)c2ccccc2)cccc1C(=O)O | 21.4%
FC(F)(F)c1nc2ccccc2n2c(-c3ccc(Cl)cc3)nnc12 | 5.64%
NS(=O)(=O)c1ccc(CCNC(=O)CCc2nc3ccccc3s2)cc1 | -6.61%
Cc1ccc(NC(=O)C2C3CCCC2C3c2ccccc2)cc1C (centres unmarked) | 2.25%
O=C1C2C3C=CC(C3)C2C(=O)N1c1ncn[nH]1 (centres unmarked) | 14.7%
O=C(c1cccc(S(=O)(=O)N2CCOCC2)c1)N(Cc1nnc(-c2ccccc2Cl)o1)C1CC1 | -24.9%
CCOc1ccc(NS(=O)(=O)c2ccc(NC(=O)c3ccccn3)cc2)cc1 | 9.85%
CCCCn1c(N)c(N(CCOC)C(=O)c2cc(-c3ccc(F)cc3)nc3ccccc23)c(=O)[nH]c1=O | 5.56%
O=C(CSc1n[nH]c(=O)[nH]c1=O)NC1CCCCC1 | 12.1%
CC(C)c1nc2cc(C(=O)N3CCNC(=O)C3c3cccc(F)c3)ccc2o1 (centres unmarked) | 3.09%
Cc1ccc(S(=O)(=O)N2CCN(C(=O)CSc3nnc(-c4ccco4)o3)CC2)cc1 | -24.3%
Cc1ccc(S(=O)(=O)N2CCN(CCNC(=O)C(=O)Nc3ccc(F)cc3)CC2)cc1 | 2.09%
